AUC and IC50 data for 50 cell lines are collected here from the supplement of paper PMC4967469.

Usually IC50 stands for the concentration that gives 50% inhibition.

Lines with a small IC50 respond at low doses; a limit (>, <) means that the fit lies beyond the doses tested. AUC sums up the same curve from the lowest dose to the 256-fold higher top dose; values near 1 show little effect. A value given as a limit tells only on which side of the number the result lay.

Compound in the test: Cn1c(=O)n(-c2ccc(C(C)(C)C#N)cc2)c2c3cc(-c4cnc5ccccc5c4)ccc3ncc21 [NVP-BEZ235]
Description: Viability of human cancer cell lines after 72 h of drug (GDSC screen). How it is done: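 Human cancer cell lines in 384-well plates, medium with 10% serum, drug for 72 h over a 256-fold dose range (nine 2-fold or five 4-fold steps up to the top dose). Adherent lines were fixed and stained with the nucleic acid dye Syto60, suspension lines read with resazurin; signal relative to control wells, capped at 0 and 100%. One two-parameter sigmoid per drug and line, fitted in a mixed model over all curves with the slope shared within a line.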

With “ALL-SIL (T-cell leukaemia, suspension, top dose 0.25 µM)”, the AUC turned out to be 0.81 and the IC50 came out at 110 nM.
The matching figures for “AM-38 (glioma, semi-adherent, top dose 0.25 µM)”: 0.703 and 59.2 nM.
Taken in the same sequence, the figures for “AMO-1 (haematopoietic neoplasm, suspension, top dose 0.25 µM)” were 0.669 and 42.7 nM.
Taken in the same sequence, the figures for “ARH-77 (myeloma, suspension, top dose 0.25 µM)” were 0.949 and more than 250 nM.
Regarding “ASH-3 (thyroid, adherent, top dose 0.25 µM)”, the AUC is 0.771 and the concentration for half-maximal inhibition (IC50) was 95.8 nM.
The matching figures for “ATN-1 (T-cell lymphoblastic leukaemia, suspension, top dose 0.25 µM)”: 0.561 and 22.6 nM.
The matching figures for “AU565 (breast, adherent, top dose 0.25 µM)”: 0.7 and 61.4 nM.
The matching figures for “AsPC-1 (pancreas, adherent, top dose 0.25 µM)”: 0.562 and 26 nM.
Consider “BALL-1 (B-cell leukaemia, suspension, top dose 0.25 µM)”, for which the AUC worked out at 0.787 and the concentration for half-maximal inhibition (IC50) was 79 nM.
As for “BB30-HNC (head and neck, adherent, top dose 0.25 µM)”, the AUC is 0.597 and the IC50 is 28.6 nM.
Consider “BB49-HNC (head and neck, adherent, top dose 0.25 µM)”, for which the AUC is 0.754 and the 50% inhibitory concentration (IC50) is 117 nM.
The matching figures for “BC-1 (B-cell lymphoma, suspension, top dose 0.25 µM)”: 0.849 and 147 nM.
Turning to “BCPAP (thyroid, adherent, top dose 0.25 µM)”, the AUC came to 0.543 and the concentration for half-maximal inhibition (IC50) amounted to 20.2 nM.
In the case of “BE2-M17 (neuroblastoma, adherent, top dose 0.25 µM)”, the AUC was 0.773 and the IC50 worked out at 100 nM.
Regarding “BE-13 (lymphoblastic leukaemia, suspension, top dose 0.25 µM)”, the AUC worked out at 0.482 and the IC50 worked out at 14 nM.
The matching figures for “BFTC-905 (bladder, adherent, top dose 0.25 µM)”: 0.695 and 50.3 nM.
Take “BHT-101 (thyroid, adherent, top dose 0.25 µM)”: the AUC was 0.611 and the 50% inhibitory concentration (IC50) amounted to 31.9 nM.
The matching figures for “BHY (head and neck, adherent, top dose 2 µM)”: 0.364 and 52.6 nM.
In the case of “BICR10 (head and neck, adherent, top dose 0.25 µM)”, the AUC worked out at 0.629 and the half-maximal inhibitory concentration (IC50) came out at 37.5 nM.
Taken in the same sequence, the figures for “BICR22 (head and neck, adherent, top dose 0.25 µM)” were 0.627 and 36.9 nM.
In the case of “BICR78 (head and neck, adherent, top dose 0.25 µM)”, the AUC was 0.773 and the IC50 was 113 nM.
Taken in the same sequence, the figures for “BL-41 (Burkitt lymphoma, suspension, top dose 0.25 µM)” were 0.586 and 25.4 nM.
The matching figures for “BPH-1 (prostate, adherent, top dose 2 µM)”: 0.221 and 17.3 nM.
Taken in the same sequence, the figures for “BT-20 (breast, adherent, top dose 0.25 µM)” were 0.76 and 108 nM.
On to “BT-474 (breast, adherent, top dose 0.25 µM)”, for which the AUC worked out at 0.845 and the IC50 was 213 nM.
The matching figures for “BT-483 (breast, adherent, top dose 0.25 µM)”: 0.773 and 209 nM.
Taken in the same sequence, the figures for “BT-549 (breast, adherent, top dose 0.25 µM)” were 0.78 and 147 nM.
In the case of “BV-173 (chronic myeloid leukaemia, suspension, top dose 0.25 µM)”, the AUC came to 0.57 and the IC50 is 23.7 nM.
The matching figures for “Becker (glioma, adherent, top dose 0.25 µM)”: 0.629 and 37.2 nM.
Taken in the same sequence, the figures for “BxPC-3 (pancreas, adherent, top dose 0.25 µM)” were 0.722 and 72.5 nM.
For “C2BBe1 (large intestine, adherent, top dose 0.25 µM)”, the AUC was 0.689 and the IC50 came out at 57.3 nM.
The matching figures for C3A (liver, adherent, top dose 0.25 µM): 0.98 and more than 250 nM.
The matching figures for “C32 (melanoma, adherent, top dose 0.25 µM)”: 0.86 and 233 nM.
For the cell line “C-4-I (cervix, adherent, top dose 0.25 µM)”, the AUC was 0.834 and the 50% inhibitory concentration (IC50) stood at 183 nM.
The matching figures for “C-33-A (cervix, adherent, top dose 0.25 µM)”: 0.776 and 100 nM.
Turning to “CA46 (Burkitt lymphoma, suspension, top dose 0.25 µM)”, the AUC was 0.803 and the 50% inhibitory concentration (IC50) is 135 nM.
Regarding “CADO-ES1 (Ewing sarcoma, suspension, top dose 0.25 µM)”, the AUC came to 0.814 and the half-maximal inhibitory concentration (IC50) turned out to be 139 nM.
In the case of “CAL-12T (non-small cell lung carcinoma, adherent, top dose 0.25 µM)”, the AUC was found to be 0.624 and the IC50 was determined as 35.8 nM.
As for “CAL-27 (head and neck, adherent, top dose 0.25 µM)”, the AUC was 0.72 and the 50% inhibitory concentration (IC50) stood at 66.5 nM.
The matching figures for “CAL-29 (bladder, adherent, top dose 0.25 µM)”: 0.508 and 16.5 nM.
On to “CAL-33 (head and neck, adherent, top dose 0.25 µM)”, for which the AUC was determined as 0.508 and the 50% inhibitory concentration (IC50) worked out at 16.5 nM.
In the case of “CAL-39 (cervix, adherent, top dose 0.25 µM)”, the AUC came to 0.647 and the IC50 was found to be 40.5 nM.
Taken in the same sequence, the figures for “CAL-51 (breast, adherent, top dose 0.25 µM)” were 0.577 and 24.6 nM.
Take “CAL-54 (kidney, adherent, top dose 2 µM)”: the AUC worked out at 0.518 and the IC50 came to 141 nM.
For the cell line “CAL-62 (thyroid, adherent, top dose 0.25 µM)”, the AUC worked out at 0.637 and the half-inhibitory concentration (IC50) came out at 36.6 nM.
The matching figures for “CAL-72 (osteosarcoma, adherent, top dose 0.25 µM)”: 0.602 and 31.4 nM.
For “CAL-78 (chondrosarcoma, adherent, top dose 0.25 µM)”, the AUC was determined as 0.911 and the IC50 was more than 250 nM.
“CAL-85-1 (breast, adherent, top dose 0.25 µM)”: the AUC amounted to 0.732 and the IC50 was 87.9 nM.
As for “CAL-120 (breast, adherent, top dose 0.25 µM)”, the AUC came out at 0.625 and the IC50 was determined as 38.2 nM.
Regarding “CAPAN-1 (pancreas, adherent, top dose 0.25 µM)”, the AUC was found to be 0.946 and the 50% inhibitory concentration (IC50) was more than 250 nM.
